Data: PubChem BioAssay AID1963576 (National Center for Advancing Translational Sciences (NCATS), 2024)
Hit rate of the full screen: of about 46,000 compounds, about 60 (0.1%) were called active. Inconclusive results (about 3%) are left out. Calls come from the whole dose curve; as a rule, active = well fitted inhibition curve with a large enough effect; inconclusive = small, poorly fitted or top-dose-only effect; inactive = no such curve, though single readings can be large or run the other way. Some of the results follow.

test: Primary qHTS assay for Inhibitors of ovarian cancer metastasis using an organotypic tumor microenvironment (TME) model.; note: nearly all actives have a fitted effect of over 65% in size;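 for activity change, negative = inhibition: plate controls were DMSO wells for no effect and tomatine positive control wells for full effect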; details: SKOV3ip1-GFP adhesion/invasion on 3D omental model, fluorescence; series mostly up to 45.8 µM; activity change, negative = inhibition: at the top concentration
How it was run: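 Adhesion/invasion was scored as fixed GFP-labeled SKOV3ip1 cell counts (488/509 nm), normalized to DMSO and tomatine controls. Cancer cells in serum-free medium, with four compound doses (0.36-46 umol/L), sat 2 hr at RT then 16 hr at 37 C on a 48 hr fibroblast/mesothelial/ECM culture.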

outcome, inactive:
COc1ccc(C2=Nc3ccc(C)cc3NC(c3ccc(Cl)cc3)=N2)cc1
COc1ccc(N(Cc2ccccc2)C(=O)c2nc(SC)ncc2Cl)cc1
COc1ccc(NC(=O)CCNS(=O)(=O)c2cccc3nsnc23)cc1OC
CC(C)c1ccc(NC(=O)c2cccn2-c2nnc(N3CCCCC3)s2)cc1
CCCCn1c(CNC(=O)c2ccc(OC)cc2)nnc1SCC(=O)Nc1ccccc1
Cc1ccc(CNC(=O)CCC(=O)N2CC(C)Sc3ccccc32)cc1 (stereo not given)
CCOC(=O)c1cccc(NC(=O)CCCn2c(C)c3cnn(-c4ccccc4)c(=O)c3c2C)c1
CCN(CC)c1cc2c(cc1F)c(=O)c(S(=O)(=O)c1ccccc1)cn2Cc1ccccc1
COc1ccccc1-c1nn(CCC(=O)Nc2cccc(C(C)=O)c2)c2nc(C)cc(C)c12
COc1cccc(NC(=O)c2cn(C3CCCCC3)c(=O)c3c2c2ccccc2n3C)c1
COC(=O)c1ccc(Cn2c(SCc3cccc(C)c3)nc3ccncc32)cc1
O=S(=O)(Nc1ccc(-c2ccc(N3CCCC3)nn2)cc1)c1ccc(Br)cc1
Cc1ccc(NS(=O)(=O)c2ccc3c(c2)NC(=O)CCS3)c(Br)c1
CCn1nc(-c2ccccc2)c(-c2ccccc2)c(C(=O)OCCOC)c1=O
CCOc1ccc(-n2c(=O)c3c(C)c(C(=O)N(C)C)sc3n(CC(=O)Nc3c(C)cc(C)cc3C)c2=O)cc1
Cc1cccc(NC(=O)CSc2nc3c([nH]c4ccccc43)c(=O)n2C)c1
COc1ccc(NC(=O)CSC2=Nc3ccccc3C3=NC(CCC(=O)NCc4ccco4)C(=O)N23)cc1 (stereo not given)
Cc1ccc2ncc3c(-c4ccccc4)nn(CC(=O)NC4CCCCC4)c3c2c1
COc1ccccc1N1CCN(CCCNC(=O)Cn2ncc3c([nH]c4ccccc43)c2=O)CC1
CCc1ccc(-c2nc(SCC(=O)NCCOC)c(-c3ccc(C)cc3)[nH]2)cc1
CCOc1ccc(S(=O)(=O)Nc2ccc(-c3ccc(N4CCCC4)nn3)cc2)cc1
CCc1cccc(C)c1NC(=O)c1cnn(-c2ccc(F)cc2)c1-n1cccc1
O=C(CN1N=C(c2ccc(Cl)cc2)CCC1=O)NCc1ccc(F)cc1
Cc1cc(NC(=O)C2CCCN(S(=O)(=O)c3cccc4nonc34)C2)ccc1Br (stereo not given)

Activity change, negative = inhibition, inactive:
Cc1ccc(Cl)cc1N1C(=O)N(Cc2ccc(C#N)cc2)c2ccccc2S1(=O)=O -15.2%
CCCCNC(=O)CSc1nc2ccccc2nc1Cc1ccc(Cl)cc1 -9.58%
CCOc1cccc2cc(-c3nc4sc5c(c4c(=O)[nH]3)CCC(C)C5)c(=O)oc12 (stereo not given) -2.62%
Cc1ccc(NC(=O)CC2Nc3cccc4cccc(c34)NC2=O)cc1 (stereo not given) 0.486%
COc1cccc(Cn2c(=O)n(-c3ccc(Br)cc3F)c(=O)c3sc4ccccc4c32)c1 19.4%
Cc1ccc2nc(N(CCCN(C)C)C(=O)c3ccc(Br)s3)sc2c1 -3.7%
CCCOc1cccc(C(=O)N(Cc2cc(OC)c(OC)c(OC)c2)C2CCS(=O)(=O)C2)c1 (stereo not given) -0.163%
CCn1c(CN2CCC(C)CC2)nc2cc(NC(=O)COc3ccc([N+](=O)[O-])cc3)ccc21 2.21%
Cc1ccc(OCCn2nnc3sc4c(c3c2=O)CCC(C(C)(C)C)C4)cc1 (stereo not given) 0.159%
Cc1ccc(NC(=O)c2cc3c(=O)[nH]c4ccccc4c3n2C)cc1F -8.96%
COc1ccc(-c2cc(C(C)=O)c(C)n2CCC(=O)NCc2ccc(F)cc2)cc1 5.33%
Cc1cccc(-n2ncc(C(=O)N3CCC(C)CC3)c2C2CCN(C(=O)OC(C)(C)C)CC2)c1 -3.68%
COc1cc(C2CC(=O)Nc3c2c(=O)n(C)c(=O)n3C)cc(OC)c1OC (stereo not given) -11.6%
CC(=O)c1cccc(NS(=O)(=O)c2c(C)nc3sc(C)cn3c2=O)c1 2.79%
CCOC(=O)c1c(S(=O)(=O)NCC(=O)N2CCN(c3ccccc3OC)CC2)c(C)n(C)c1C -8.99%
COc1ccc(CCNC(=O)NCc2noc3ccc(C)cc23)c(OC)c1 2.85%
COc1ccc(S(=O)(=O)N(CC(=O)N2CCC(C)CC2)c2ccc(C)cc2)cc1 -5.65%
CCCCNC(=O)C(CC)Sc1nnc(-c2ccc(OC)c(OC)c2)c(-c2ccc(OC)c(OC)c2)n1 (stereo not given) -55.4%
Cc1ccc(-c2ccc(=O)n(C(C)C(=O)Nc3ccccc3Cl)n2)cc1C (stereo not given) 1.84%
CCn1cc(C(=O)O)c(=O)c2cc(F)c(N3CCN(C)CC3)cc21 -7.73%
CC1CCc2nc3ncn(CC(=O)Nc4cccc(C#N)c4)c(=O)c3cc2C1 (stereo not given) -10.8%
Cc1cc(C)c(/C=C/c2onc(C)c2S(=O)(=O)N2CCC(C(=O)N3CCN(c4ccccc4)CC3)CC2)c(C)c1 -0.224%
CCOC(=O)c1sc2ncn(CC(=O)Nc3ccc(C)cc3C)c(=O)c2c1C -9.89%
Cc1cc(N2CCC(C)CC2)nc2ccc(NC(=O)CCC(=O)N3CCN(c4cccc(C(F)(F)F)c4)CC3)cc12 -6.76%
CCc1ccccc1Nc1nn2c(=O)c3ccc(C(=O)Nc4cc(C)cc(C)c4)cc3nc2s1 0.597%
COc1ccc(C(=O)NCC(c2cccs2)S(=O)(=O)c2ccc(C)cc2)cc1 (stereo not given) -1.15%
CCOc1ccccc1NC(=O)C(C)Sc1nc2c(c(=O)[nH]1)CCCC2 (stereo not given) -0.144%
CCc1cccc(CC)c1NC1=NS(=O)(=O)c2ccccc21 2.93%
Cc1ccc(CC(=O)Nc2c(C(=O)N3CCN(c4ccccc4F)CC3)oc3ccccc23)cc1 -3.89%
Cc1cc(F)ccc1NC(=O)c1sc2nc(-c3cccs3)ccc2c1N -22.8%
Cc1nn(C)c2c1c(C(F)(F)F)cc(=O)n2CC(=O)NCc1ccccc1Cl 6.25%
CCOC(=O)C1=C(CN2CCC(C(=O)OCC)CC2)NC(=O)NC1c1ccc(Cl)cc1 (stereo not given) -2.46%
Cc1oc(-c2ccccc2)nc1CNC(=O)Nc1ccccc1 -2.59%
CN1C(C(=O)Nc2ccc(F)cc2F)=CC(c2cccs2)=NS1(=O)=O 1.65%
Cc1ccc2c(=O)cc(C(=O)Nc3nnc(C)s3)oc2c1 -7.28%
COc1ccc(-c2cc(C(=O)Nc3c(C)nn(Cc4ccc(F)cc4)c3C)no2)cc1OC 3.92%
CCOC(=O)c1ccccc1NC(=O)CCc1c(C)nc2ncnn2c1C -15.4%
CCOCCCNC(=O)CCc1nnc2ccc(N3CCN(c4cccc(OC)c4)CC3)nn12 9.08%
Cc1ccc(NCc2nnc3n2CCCCC3)cc1Cl 2.75%
Cc1ccc(CN(C(=O)COc2ccc(C)c(C)c2)C2CCS(=O)(=O)C2)o1 (stereo not given) 1.46%
CC(C)N(C(=O)Cn1cc(S(=O)(=O)Cc2ccc(C(F)(F)F)cc2)c2ccccc21)C(C)C 8.84%
Cc1ccc(Nc2c(-c3ccccc3O)nc3ccc(Br)cn23)cc1 8.08%
CCOc1ccc(S(=O)(=O)N2CCN(c3ccccc3)CC2)cc1C(N)=O -7.01%
COc1ccc(OCc2nnc(-c3ccccc3)o2)cc1 -2.3%
COc1ccc(S(=O)(=O)Nc2cc(-c3cn4ccccc4n3)ccc2C)cc1 2.09%
O=C(CC1NCCNC1=O)Nc1cccc(F)c1 (stereo not given) 2.6%
CCOC(=O)c1ccc(NC(=O)C2CCCN(c3ncnc4onc(C)c34)C2)cc1 (stereo not given) 5.93%
Cc1nc2ccc(S(=O)(=O)CCC(=O)Nc3ccccc3C)cc2s1 -5.75%
COc1cccc(C2C(C(=O)Nc3cccnc3)=C(C)Nc3nc(SCc4ccccc4)nn32)c1 (stereo not given) 5.21%
Cc1ccc(NC(=O)Cn2c(=O)oc3cc(S(=O)(=O)N4CCCC4)ccc32)cc1F -1.31%
COc1ccc(CCNc2oc(COc3ccc(Cl)cc3)nc2C#N)cc1OC -4.03%
CCc1ccc2nc(N3CCN(C(=O)c4ccco4)CC3)sc2c1 -1.79%
COc1ccc(Nc2nnc(-c3ccc(C)c(S(N)(=O)=O)c3)c3ccccc23)cc1 -17.3%
CC(=O)c1cccc(NC(=O)C2=CC(c3ccco3)=NS(=O)(=O)N2C)c1 3.49%
CCc1ccc(CNc2nc3nc(C)c(Cc4ccccc4)c(=O)n3[nH]2)cc1 0.396%
CCc1ccc(CN2CCc3nc(Nc4ccc5c(c4)OCCO5)ncc3C2)cc1 -2.68%
COc1ccccc1CNC(=O)C(=O)NCC(c1ccc2c(c1)OCO2)N1CCOCC1 (stereo not given) -1.29%
Cc1cccc(S(=O)(=O)c2cn(Cc3ccccc3)c3cc(N4CCCC(C)C4)c(F)cc3c2=O)c1 (stereo not given) -12.6%
Cc1cccc2sc(N3CCN(C(=O)c4ccco4)CC3)nc12 9.05%
CSc1nn(Cc2cccc(F)c2)c(N(C(C)=O)C(C)=O)c1S(=O)(=O)c1ccccc1 30.2%
O=C1Nc2ccccc2Oc2cc(Oc3ccc(Cl)cc3)ccc21 -24.1%
CCC(=O)N1CCc2cc(S(=O)(=O)NC(CC(C)C)C(=O)Nc3ccc(CC)cc3)ccc21 (stereo not given) 2.52%
COc1ccc(OC)c(CNCc2c(C(=O)O)n(Cc3ccccc3)c3cc(OC)ccc23)c1 -1.68%
Clc1ccc(CSc2nc(NCCc3ccccc3)c3ccccc3n2)cc1 16.5%
CCOc1ccccc1CNC(=O)CCCN1C(=O)CCn2nc(-c3cccn3C)cc21 -3.14%
Cc1ccc(-c2cc(C(F)(F)F)n3nc(C(=O)Nc4ccc(C#N)cc4)cc3n2)cc1 3.29%
CCOC(=O)c1c(C)[nH]c(C)c1S(=O)(=O)N1CCCC(C(=O)N2CCN(c3cc(C)ccc3C)CC2)C1 (stereo not given) -0.545%
CCc1ccc(-n2nc(C)c3c(C)cc(=O)n(CC(=O)Nc4ccc(OC)c(OC)c4)c32)cc1 2.69%
Cc1ccc(CNC(=O)C2CCN(S(=O)(=O)c3ccc4c(c3)oc(=O)n4C)CC2)cc1 4%
CCC(CC)C(=O)Nc1ccccc1C(=O)OCc1cc(=O)n2nc(C3CCCCC3)sc2n1 2.71%
COc1ccc(Cl)cc1N(C)C(=O)Cn1cnc2sc(C)c(S(=O)(=O)N3CCN(c4ncccn4)CC3)c2c1=O -4.24%
